Data from PubChem BioAssay AID1476 (National Center for Advancing Translational Sciences (NCATS), 2009).
Hit rate of the full screen: of about 200,000 compounds, about 4,500 (2.2%) were called active. Inconclusive results, whose numbers are uncertain, are shown with a selection of clear calls. Calls come from the whole dose curve; as a rule, active = well fitted inhibition curve with a large enough effect; inconclusive = small, poorly fitted or top-dose-only effect, or effect the other way; inactive = flat fitted curve, though single readings scatter. A potency beside an inconclusive call is a rough fit, not a confirmed value.

molecular target: Cruzipain (Trypanosoma cruzi) (UniProt P25779); test: qHTS Assay for Promiscuous and Specific Inhibitors of Cruzain (without detergent); details: purified cruzain, Z-FR-AMC fluorescence, no detergent; note: nearly all actives have a fitted effect of over 40% in size;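 for max response, negative = inhibition: plate controls were enzyme without inhibitor for no effect and buffer without enzyme for full effect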
Chain of UniProt P25779 (P25779 whole entry, looked up): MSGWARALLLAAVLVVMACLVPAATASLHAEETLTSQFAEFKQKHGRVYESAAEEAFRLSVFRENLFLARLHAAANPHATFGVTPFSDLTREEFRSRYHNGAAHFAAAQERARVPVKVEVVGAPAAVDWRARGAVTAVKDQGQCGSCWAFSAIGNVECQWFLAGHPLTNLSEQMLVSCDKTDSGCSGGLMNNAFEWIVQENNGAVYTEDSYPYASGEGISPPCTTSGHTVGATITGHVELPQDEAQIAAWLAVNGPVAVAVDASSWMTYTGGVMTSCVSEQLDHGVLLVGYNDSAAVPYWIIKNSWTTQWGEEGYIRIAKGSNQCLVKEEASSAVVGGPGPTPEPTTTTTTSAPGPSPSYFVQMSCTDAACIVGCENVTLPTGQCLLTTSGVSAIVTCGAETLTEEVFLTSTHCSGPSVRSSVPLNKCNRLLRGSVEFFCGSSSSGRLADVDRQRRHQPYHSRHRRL
In short: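 Detergent-free condition (0.00005% Triton X-100) in acetate buffer pH 5.5 with DTT. 1.5 nM enzyme and compound were pre-mixed 15 min, then 2 uM Z-FR-AMC substrate added; reaction progress from fluorescence change between first and third reads (60 s).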
Potency is the fitted concentration of half-maximal effect; tags give direction and shape of the fitted curve.

Row | Compound | Potency | max response, negative = inhibition
1 | O=C(Nc1ccc2c(c1)OCO2)C1Cc2ccccc2CN1S(=O)(=O)c1cccs1 (stereo not drawn) | active: 25.1 µM | 
2 | COc1ccc(/C=N/NC(=O)c2nc(-c3ccccc3)n(-c3ccccc3)n2)cc1 |  | inactive: -18.6%
3 | CCOC(=O)c1ccc(S(=O)(=O)NCC(c2ccc(N(C)C)cc2)c2c[nH]c3ccccc23)cc1 (stereo not drawn) | inconclusive: 31.6 µM [inhibitor, single point] | 
4 | CCn1cc(C(=O)NCc2ccccc2)c(=O)c2cc(F)c(N3CCN(C(=O)c4ccco4)CC3)cc21 | inconclusive: 15.8 µM [activator, partial curve] | 
5 | O=C(CSc1ncnc2c1cnn2-c1ccccc1)Nc1ccccc1 | inconclusive: 31.6 µM [inhibitor, single point] | 
6 | COc1cccc(-c2nc(CSCC(=O)NCCc3ccc(Cl)cc3)c(C)o2)c1 | inconclusive: 1.26 µM [activator, partial curve, poor fit] | 
7 | CCOCC(=O)Nc1ccc(-c2cn3cccnc3n2)cc1 | inconclusive: 31.6 µM [inhibitor, single point] | 
8 | CCOc1ccc(C2Sc3ccccc3NC3=C2C(=O)OC3)cc1 (stereo not drawn) | inconclusive: 31.6 µM [activator, single point] | 
9 | CCOC(=O)c1cnn(-c2ncnc3sc4c(c23)CCC4)c1N | inconclusive: 39.8 µM [activator, single point] | 
10 | CCCCN(CCCC)CC(O)Cn1cc(/C=C/C(=O)c2ccccc2)c2ccccc21 (stereo not drawn) |  | inactive: -0.807%
11 | CSc1nc(Oc2ccc3ccccc3c2)c2ccccc2n1 | inconclusive: 39.8 µM [inhibitor, single point] | 
12 | O=[N+]([O-])c1ccc(Oc2ccc(-c3cnc4ccccc4n3)cc2[N+](=O)[O-])cc1 | inconclusive: 39.8 µM [inhibitor, single point] | 
13 | CCCSC(=O)Cl |  | inactive: 3.5%
14 | CCC1(C)Cc2ccccc2-c2nc(NCCO)n(-c3ccccc3)c(=O)c21 (stereo not drawn) | inconclusive: 31.6 µM [activator, partial curve] | 
15 | CCOC(=O)CCNC(=O)Nc1ccc2nc(C)n(Cc3ccccc3Cl)c(=O)c2c1 | inconclusive: 39.8 µM [activator, single point] | 
16 | Cc1noc(C)c1C(=O)N1CCC[C@@]2(CCN(Cc3nccs3)C2)C1 |  | inactive: 3.89%
17 | COc1cc(/C=N/NC(=O)c2ccc3ccccc3c2)ccc1Oc1ccc([N+](=O)[O-])cn1 | inconclusive: 31.6 µM [inhibitor, single point] | 
18 | CCOC(=O)c1c(NC(=O)CSc2nnc(-c3cccnc3)n2Cc2ccco2)sc(C)c1C | inconclusive: 39.8 µM [activator, single point] | 
19 | Cc1ccc(OCC(=O)Nc2ccc(-c3nc4ncccc4o3)cc2)cc1 | inconclusive: 3.98 µM [inhibitor, full curve, poor fit] | 
20 | COc1ccc(C2CC(c3cccs3)=Nc3ccccc3S2)cc1 (stereo not drawn) | inconclusive: 39.8 µM [inhibitor, single point] | 
21 | Cc1noc(C)c1CSc1nnc(-c2ccncc2)n1-c1cccc(Cl)c1C | inconclusive: 20 µM [activator, single point] | 
22 | Clc1cc2c(c(CSC3=NCN(CC4CC4)CN3)c1)OCOC2 |  | inactive: -14.5%

Row | Compound | Potency | max response, negative = inhibition
23 | COc1ccc(Br)cc1/C=N/NC(=O)c1nc(-c2ccccc2)n2c1CCCCC2 | inconclusive: 39.8 µM [inhibitor, single point] | 
24 | O=C(C1CCN(S(=O)(=O)c2ccc(Br)s2)CC1)N1CCc2ccccc21 | inconclusive: 31.6 µM [inhibitor, single point] | 
25 | CCOc1ccc(NC(=O)c2cn(C)c(=O)c3cc(OC)c(OC)cc23)cc1 |  | inactive: -1.25%
26 | CCCN1CCN(CCNC(=O)Nc2ccc(OC)c(OC)c2)CC1 |  | inactive: -1.95%
27 | CCOC(=O)C1CCC(CN(Cc2ccc(Cl)cc2)S(=O)(=O)c2ccc(Br)cc2)CC1 (stereo not drawn) |  | inactive: 9.09%
28 | CN1C(=O)C2(SCC(=O)N2c2cccc(C(F)(F)F)c2)c2ccccc21 (stereo not drawn) | inconclusive: 39.8 µM [activator, single point] | 
29 | COc1cc(/C=C/C(=O)Nc2cc(C(F)(F)F)ccc2Cl)cc(OC)c1OC | inconclusive: 39.8 µM [activator, single point] | 
30 | COc1ccc(-c2cc(C(F)F)nc(-n3nc(C)cc3C)n2)cc1 | inconclusive: 31.6 µM [activator, single point] | 
31 | COc1nc(N(C#N)CC(N)=O)nc(N2CCCC2)n1 | inconclusive: 39.8 µM [inhibitor, single point] | 
32 | Cc1ccc(Cn2cc(/C=N/Nc3ccc([N+](=O)[O-])cn3)c3ccccc32)cc1 | active: 6.31 µM | 
33 | CCOC(=O)CC1C(=O)NCCN1C(=O)c1cc2c(=O)n3cccc(C)c3nc2s1 (stereo not drawn) |  | inactive: 8.37%
34 | Cc1ccc(Cn2ccnc2SCC(=O)NCc2ccc(F)cc2)cc1 |  | inactive: 17.5%
35 | COc1ccccc1N1CCN(C(=O)c2cn(-c3ccccc3)nc2-c2cccnc2)CC1 | inconclusive: 31.6 µM [activator, single point] | 
36 | COCCN1Cc2c(sc(C)c2C)N(C(=O)c2ccccc2)C1 |  | inactive: 6.76%
37 | CCc1nnc(NC(=O)[C@@H](NC(=O)c2cccc(S(=O)(=O)N(CC)CC)c2)C(C)C)s1 | inconclusive: 31.6 µM [activator, single point] | 
38 | Cc1ccc(Nc2nc(C)cc(C)n2)c(C(=O)O)c1 |  | inactive: 12.9%
39 | O=C(Nc1ccc(Cl)cn1)c1ccc2ccccc2n1 | inconclusive: 39.8 µM [inhibitor, single point] | 
40 | COc1ccc(NC(=O)c2sc3nc(C)c(C(=O)Nc4ccc(C)cc4C)c(-c4ccc(C)o4)c3c2N)cc1 |  | inactive: 7.78%
41 | COc1ccc2cc(-c3csc(-c4cccnc4)n3)ccc2c1 | inconclusive: 39.8 µM [inhibitor, single point] | 
42 | CCN(CC)Cc1c(O)ccc2c(-c3ccccc3)cc(=O)oc12 | inconclusive: 20 µM [inhibitor, partial curve] | 
43 | COc1cc(NC(=O)CSc2nc3nc(C)c(Cc4ccc(C)cc4)c(C)n3n2)cc(OC)c1 |  | inactive: 20.9%
